Here are results for 56 sequences from the supplement of paper PMC11417369.

± gives the standard deviation of the averaged measurements. Some of the results follow.

This test has as its system PfAP2-EXP AP2 domain (GST-tagged). Put plainly: gcPBM binding intensity (ln(normalized median fluorescence intensity)); higher = stronger DNA binding. The gist of the method:
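For binding intensity, the highest Masliner-normalised natural-log median intensity across replicate spots of either probe orientation was taken. Protein bound to the array was stained with Alexa488 anti-GST antibody and scanned at 488 nm. The protein, GST-tagged P. falciparum DNA-binding domains from E. coli at about 25 μg on average, had been applied for 1 h to an Agilent 4 × 180k array of primer-extended double-stranded 36-bp intergenic genomic probes and negative controls.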
For “AGATATCTTGTGAAATAAAAAAAATAATTGCTTATA [CACACA_negctrl_site798]”, the “gcPBM binding intensity (ln)” value came out at 8.13 ± 0.48.

Turning to “AAGGCAAACAAACACACACACATATATACCTATATA [CACACA_site5203]”, the “gcPBM binding intensity (ln)” value came to 8.55 ± 0.51.

As for “AGAAATGAAATCCAAAAACGAGGAACCAATAACGCA [CACACA_negctrl_site1758]”, the “gcPBM binding intensity (ln)” value is 8.89 ± 0.56.

In the case of “TCTTATCCATATATTACACACTATATATAGAAATTA [CACACA_site291]”, the “gcPBM binding intensity (ln)” value came out at 8.62 ± 0.46.

As for “ATATTATATTATTAATGTACATATATATAATTTTAA [XGTACX_site4974]”, the “gcPBM binding intensity (ln)” value turned out to be 8.28 ± 0.38.

For the sequence “TACATACATACATACACACACACATATATATATATA [CACACA_site42]”, the “gcPBM binding intensity (ln)” value stood at 10 ± 0.28.

Turning to “TAGGTCCTCATTTTATGTACATAAAGAAATATGATT [XGTACX_site4138]”, the “gcPBM binding intensity (ln)” value is 8.57 ± 0.35.

As for “AAAGAAAAAAAAATTACACACATATATTATAGATAT [CACACA_site7495]”, the “gcPBM binding intensity (ln)” value came to 8.4 ± 0.33.

Turning to “TCCTTCGAAACTAAAATTCATTTAAAATATTGATAT [CACACA_negctrl_site369]”, the “gcPBM binding intensity (ln)” value came out at 8.16 ± 0.52.

As to “ATATATGCTAATATATGTACTGATTATATCTCTTCA [XGTACX_site7156]”, the “gcPBM binding intensity (ln)” value amounted to 8.2 ± 0.31.

As for “TATTTATAGATATATACACACATATACATATTGTTT [CACACA_site7611]”, the “gcPBM binding intensity (ln)” value is 8.35 ± 0.31.

Consider “ATATAAACATTTAGTAATCCATATAGGTACTACTGA [CACACA_negctrl_site1249]”, for which the “gcPBM binding intensity (ln)” value turned out to be 8.13 ± 0.33.

Turning to “AAAAAAAATATATAAACACACATATTTATATACGCA [CACACA_site1631]”, the “gcPBM binding intensity (ln)” value is 8.3 ± 0.42.

Take “TAGTATTAAATATATACACACATATATACATATAGA [CACACA_site2154]”: the “gcPBM binding intensity (ln)” value was found to be 8.16 ± 0.39.

As for “TTAATTTTTTTTTCTTGTACACACTATTTTATAATT [XGTACX_site8783]”, the “gcPBM binding intensity (ln)” value worked out at 8.86 ± 0.4.

Take “GCAGCAGCATTTTCAGTGCATTATTATATTGTTCAT [GTGCAC_site9926]”: the “gcPBM binding intensity (ln)” value was 8.69 ± 0.22.

As to “GTGTACTTTTAAATAGTGCATTTTACAATAATAAAA [GTGCAC_site9653]”, the “gcPBM binding intensity (ln)” value was found to be 8.69 ± 0.092.

“GTTGCACAATGTTACACACACAATATATATCGTTAA [CACACA_site1275]”: the “gcPBM binding intensity (ln)” value turned out to be 8.71 ± 0.31.

With “TATTATAATACTTATTGTACTTTTAGGTTAATTTAT [XGTACX_site995]”, the “gcPBM binding intensity (ln)” value came to 8.48 ± 0.35.

Consider “GTAATAAAATGACATACATGCATTACAATTATGTAA [TGCATGCA_site220]”, for which the “gcPBM binding intensity (ln)” value was 8.4 ± 0.22.

Consider “CCCTTTTTTTTTTAATGTACATATAATTATATATTT [XGTACX_site8568]”, for which the “gcPBM binding intensity (ln)” value worked out at 8.9 ± 0.38.

“GGAAACCTTTTTTTTACACACAATATATTAAGACTT [CACACA_site4899]”: the “gcPBM binding intensity (ln)” value turned out to be 8.38 ± 0.41.

On to “AATTGTACGTAGGGGTATAAAAGCTTAAAAATGGGG [CACACA_negctrl_site1392]”, for which the “gcPBM binding intensity (ln)” value is 9.53 ± 0.57.

In the case of “AAAGCAAAAGGAAAATAACCAACCCTAATTAACACA [CACACA_negctrl_site530]”, the “gcPBM binding intensity (ln)” value is 8.6 ± 0.55.

“ACCTAATATTATTAAACATGCACATTTGCATAAATA [TGCATGCA_site870]”: the “gcPBM binding intensity (ln)” value came to 8.61 ± 0.18.

As for “AAATAATTCAAAAAAACACACAAATTACAAAATAAA [CACACA_site269]”, the “gcPBM binding intensity (ln)” value stood at 8.67 ± 0.42.

For “CAAAATGAAAGGAAAAGTACATTTAAATGAATAAAT [XGTACX_site8241]”, the “gcPBM binding intensity (ln)” value amounted to 8.93 ± 0.47.

For the sequence “TAAAAATATATTATATGTACGTATAACAATGTATGA [XGTACX_site8606]”, the “gcPBM binding intensity (ln)” value turned out to be 8.71 ± 0.35.

With “GTATAATATTCATATTCACACATTAAAATATATTTA [CACACA_site4879]”, the “gcPBM binding intensity (ln)” value worked out at 8.49 ± 0.49.

For “AAAAAAAAAAAAAAAACACACATGTATAATATAATA [CACACA_site2209]”, the “gcPBM binding intensity (ln)” value was determined as 8.64 ± 0.3.

For “TTATTATTAAAACACACACACAAAAAAAAAAAAAAA [CACACA_site1480]”, the “gcPBM binding intensity (ln)” value turned out to be 8.27 ± 0.61.

As for “TACACCTGCACGATTGCACACAAATATGTTTTGAAG [CACACA_site8656]”, the “gcPBM binding intensity (ln)” value is 8.79 ± 0.33.

As to “TTATATATATATATATAATATATATATATTTAAATA [XGTACX_negctrl_site453]”, the “gcPBM binding intensity (ln)” value came to 8.03 ± 0.16.

For the sequence “TATAGATGTGGTTTATGTACATACTATAAAAAATCA [XGTACX_site1400]”, the “gcPBM binding intensity (ln)” value was 8.74 ± 0.33.

For “AAGAATATAATCTTCACACATATATATATATATATA [CACACA_site5927]”, the “gcPBM binding intensity (ln)” value is 10.2 ± 0.33.

For the sequence “AAGGACAACAAACAAACACACACAAAAAAAAAATAA [CACACA_site9263]”, the “gcPBM binding intensity (ln)” value came to 8.59 ± 0.6.

Consider “TATATATCTTTATGCACACACAAAGAAAATTTTCCT [CACACA_site7366]”, for which the “gcPBM binding intensity (ln)” value was 8.97 ± 0.092.

Turning to “ATTAATTTAATTTGAATTATTTTATTATATTATTAT [XGTACX_negctrl_site10]”, the “gcPBM binding intensity (ln)” value amounted to 8.19 ± 0.46.

On to GTTTGAATATATCAGGTGCATTTATAATTCATATGA, for which the “gcPBM binding intensity (ln)” value came out at 8.55 ± 0.16.

With “AGATGAACTAAAAAGGTGCTAAATATGTGACCACTG [GTGCAC_site9406]”, the “gcPBM binding intensity (ln)” value turned out to be 8.88 ± 0.36.

In the case of “TAATTAAATATTTCAGTGCATTATTTTATGATCCAT [GTGCAC_site9456]”, the “gcPBM binding intensity (ln)” value was 8.86 ± 0.51.

Turning to “TTTTTTTTAGTATGAACACACATATAGATTATAAAA [CACACA_site7391]”, the “gcPBM binding intensity (ln)” value is 8.27 ± 0.39.

Consider “ATTTAGAATGTTCCTACACACCAAATTTAAGTGTGC [CACACA_site7161]”, for which the “gcPBM binding intensity (ln)” value is 8.58 ± 0.47.

In the case of “TACATACACAGACACACACACATATAAATATAAATA [CACACA_site7641]”, the “gcPBM binding intensity (ln)” value amounted to 8.71 ± 0.47.

As for “ATATTATAGATATACACACACACATGCATGCACATA [CACACA_site6203]”, the “gcPBM binding intensity (ln)” value came out at 9.835 ± 0.092.

Take “ATAAGAAGAAGAAAAACACACATATGTAAATATATA [CACACA_site3138]”: the “gcPBM binding intensity (ln)” value was found to be 8.74 ± 0.71.

In the case of “TGTGAAATAAAATTTATACACACTTGCTAAATGATC [CACACA_site181]”, the “gcPBM binding intensity (ln)” value was 8.34 ± 0.26.

For the sequence “CTTTTTTTTTTAAATAGTACTTTCTCGTATACTCAT [XGTACX_site1842]”, the “gcPBM binding intensity (ln)” value was determined as 8.77 ± 0.49.

“AAGAAAAATGTGTTTTTTTTTTTTTTTTTTTTCAAT [TGCATGCA_negctrl_site404]”: the “gcPBM binding intensity (ln)” value turned out to be 7.85 ± 0.47.

Take “TATAAATATAAATACACACACACACGCCAAAGCGTA [CACACA_site6181]”: the “gcPBM binding intensity (ln)” value amounted to 8.49 ± 0.36.

“TTTTTTTATTTTTGTTGTACTTATAATTCTGTAAAA [XGTACX_site7344]”: the “gcPBM binding intensity (ln)” value came out at 8.77 ± 0.43.

With “TACGTTATATACAACTGTACTTGGATAATTATTAAC [XGTACX_site5614]”, the “gcPBM binding intensity (ln)” value amounted to 8.56 ± 0.31.

“TACAAATTAATATGTACACACAAATATAAATATGTA [CACACA_site7016]”: the “gcPBM binding intensity (ln)” value worked out at 8.42 ± 0.33.

Regarding “AAGTTTTTTTCTTTTTTTCTCTCTTTTTTTTTTTTT [XGTACX_negctrl_site613]”, the “gcPBM binding intensity (ln)” value was 8.19 ± 0.51.

For “TTTTCTTTTTTGAACTGTACGCGTAAATTTAAAAAG [XGTACX_site882]”, the “gcPBM binding intensity (ln)” value is 8.57 ± 0.26.

Consider “GATATGATTAACTTATGTTATTCTTGATGATTACGT [CACACA_negctrl_site354]”, for which the “gcPBM binding intensity (ln)” value is 8.45 ± 0.35.
